Assay results reported in patent EP4671280A1 (Nanjing Leads Biolabs Co., Ltd., dated 2025).

Experiments:
Experiment in all cases: BLI (ForteBio Octet RED96e), antibody captured on AHC sensor, antigen in solution, 1:1 model
[1] = target: T1, human Nectin-4-his protein (ACRO Biosystems, Cat. No. NE4-H52H3) (human, UniProt Q96NY8 32-349)
T1 construct: Bought protein; also called human Nectin-4 protein; not shown: his tag
T1 sequence (looked up): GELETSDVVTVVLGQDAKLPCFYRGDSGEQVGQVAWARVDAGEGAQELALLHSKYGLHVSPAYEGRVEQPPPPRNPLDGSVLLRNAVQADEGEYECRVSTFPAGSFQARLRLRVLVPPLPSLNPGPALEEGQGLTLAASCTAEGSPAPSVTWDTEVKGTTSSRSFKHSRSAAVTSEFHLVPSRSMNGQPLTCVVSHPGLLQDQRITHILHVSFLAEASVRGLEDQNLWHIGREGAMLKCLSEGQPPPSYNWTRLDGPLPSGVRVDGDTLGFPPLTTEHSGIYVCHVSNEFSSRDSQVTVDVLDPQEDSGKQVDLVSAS

[2] = target: human 4-1BB protein (Sino Biological, Cat. No. 10041-H08H) (human, UniProt Q07011 24-186)
[3] = target: T2, cynomolgus monkey Nectin-4 protein (KACTUS, Cat. No. NEC-CM104) (cynomolgus monkey, UniProt A0A2K5WES1 32-349)
T2 construct: Bought protein
T2 sequence: T1 sequence (looked up) with V39A, I230V

B1: huH4F3-5-41BB bispecific antibody (bispecific antibody, human IgG1, kappa, L234A L235A)
heavy: QVQLVQSGAEVKKPGASVKVSCKASGYTFTSYYIHWVRQAPGQRLEWMGWIYPGNVNTKYSQKFQGRVTLTRDKSASTAYMELSSLRSEDTAVYYCARGVYYFDFWGQGTLVTVSSASTKGPSVFPLAPSSKSTSGGTAALGCLVKDYFPEPVTVSWNSGALTSGVHTFPAVLQSSGLYSLSSVVTVPSSSLGTQTYICNVNHKPSNTKVDKKV[human IgG1 Fc with L234A L235A D265A P329A (EU numbers) not spelt out]AGGGGSGGGGSGGGGSQVQLQESGGGLVQPGGSLRLSCAVSGFTFSSYAMHWVRQAPGKCLEWVAVISYDGSKKWYADSVKGRFTISRDNSKNTLYLQMNSLRAEDTAVYYCARNQGSGSYLYYYYMDVWGKGTTVTVSSGGGGSGGGGSGGGGSQSALTQPRSVSGSPGQSVTISCTGTSSDVGGYNYVSWYQQLPGKAPKVIIYEVSNRPSGVSNRFSGSKSGNTASLTISGVQSEDEADYYCSSYTSSSTFYVFGCGTQLTVL
light: DIVMTQSPDSLAVSLGERATINCKSSQSVSNDVAWYQQKPGQPPKLLIYYALNRESGVPDRFSGSGSGTDFTLTISSLQAEDVAVYYCQQDYSSPYTFGQGTKLEIKRTVAAPSVFIFPPSDEQLKSGTASVVCLLNNFYPREAKVQWKVDNALQSGNSQESVTEQDSKDSTYSLSSTLTLSKADYEKHKVYACEVTHQGLSSPVTKSFNRGEC
notes: also called humanized anti-Nectin-4×4-1BB bispecific antibody
In the case of B1, the Kd [1] is reported as 0.296 nM, the koff [1] is reported as 9.29e-05 s⁻¹ and the kon [1] is reported as 314000 M⁻¹ s⁻¹. The Kd [2] was 57.1 nM, the koff [2] was 0.00568 s⁻¹ and the kon [2] was 99600 M⁻¹ s⁻¹. For the same binder, the Kd [3] was 5.88 nM, the koff [3] was 0.0018 s⁻¹ and the kon [3] was 307000 M⁻¹ s⁻¹.

Residue numbers refer to the chain shown, from its start.
